The supplement of paper PMC10369915
This is one part of the list. No stated cut-off is given here; in the data, active = 3.2 or more and inactive = the rest. Only a few entries rise above the background.

biological target: SHP2 C-SH2 domain E139D; experiment: enrichment score (SH2-bound / input frequency) (ratio); bacterial display of known human phosphotyrosine sites (pTyr-Var adds point mutants) read by sequencing; higher = stronger binding; tyrosines were phosphorylated by kinases first; conditions: peptide library: pTyr-Var
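Further: displayed peptides selected on beads carrying the immobilized SH2 domain, with library peptides lacking any tyrosine serving as negative controls.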

Binder	enrichment score
DQVEQCKKELE [LMNA_Y259_Y259C]	inactive: 0.607
FQKNIYSEEPR [LMNA_Y211_L215P]	inactive: 0.641
QQLDKYQELLD [LMNA_Y359_E358K]	inactive: 0.694
QQLDEYQKLLD [LMNA_Y359_E361K]	inactive: 0.85
LQKNIYSEELR [LMNA_Y211_F206L]	inactive: 0.835
FQKNSYSEELR [LMNA_Y211_I210S]	inactive: 0.526
VNKIFHPDFIV [LIG3_Y768_Y768H_YF]	inactive: 1.22
MFQVQYNSSVD [LRFN1_Y458_YF]	inactive: 1.18
YDCGMYSHLQG [LGR4_Y848]	inactive: 1.19
PQDVTYAQLHS [LILRB4_Y412]	inactive: 0.743
MEIHAYRKLSE [LMNA_Y376_L380S]	inactive: 0.485
NSNAAYEESHF [LRIF1_Y714_Q716E]	inactive: 0.535
RSSKMYLKTRS [LPL_Y329]	inactive: 0.841
NPPGMYPVTGP [LPP_Y346]	inactive: 0.75
YGCGMYSHLQG [LGR4_Y848_D844G]	inactive: 1.04
RRSKMYLKTRS [LPL_Y329_S325R]	inactive: 0.254
KEIHAYRKLLE [LMNA_Y376_M371K]	inactive: 0.864
PGIRMYRVQYN [LRFN1_Y454_Q455R]	inactive: 0.553

biological target: SHP2 C-SH2 domain wild-type; experiment: as above; conditions: peptide library: pTyr-Var

Binder	enrichment score
DQVEQCKKELE [LMNA_Y259_Y259C]	inactive: 0.577
FQKNIYSEEPR [LMNA_Y211_L215P]	inactive: 0.677
QQLDKYQELLD [LMNA_Y359_E358K]	inactive: 0.899
QQLDEYQKLLD [LMNA_Y359_E361K]	inactive: 0.916
LQKNIYSEELR [LMNA_Y211_F206L]	inactive: 0.968
FQKNSYSEELR [LMNA_Y211_I210S]	inactive: 0.541
VNKIFHPDFIV [LIG3_Y768_Y768H_YF]	inactive: 0.892
MFQVQYNSSVD [LRFN1_Y458_YF]	inactive: 1.04
YDCGMYSHLQG [LGR4_Y848]	inactive: 1.56
PQDVTYAQLHS [LILRB4_Y412]	inactive: 1.54
MEIHAYRKLSE [LMNA_Y376_L380S]	inactive: 0.475
NSNAAYEESHF [LRIF1_Y714_Q716E]	inactive: 0.576
RSSKMYLKTRS [LPL_Y329]	inactive: 0.496
NPPGMYPVTGP [LPP_Y346]	inactive: 0.925
YGCGMYSHLQG [LGR4_Y848_D844G]	inactive: 1.12
RRSKMYLKTRS [LPL_Y329_S325R]	inactive: 0.126
KEIHAYRKLLE [LMNA_Y376_M371K]	inactive: 0.684
PGIRMYRVQYN [LRFN1_Y454_Q455R]	inactive: 0.445

biological target: SHP2 N-SH2 domain L43F; experiment: as above; conditions: peptide library: pTyr-Var

Binder	enrichment score
DQVEQCKKELE [LMNA_Y259_Y259C]	inactive: 0.542
FQKNIYSEEPR [LMNA_Y211_L215P]	inactive: 0.752
QQLDKYQELLD [LMNA_Y359_E358K]	inactive: 0.822
QQLDEYQKLLD [LMNA_Y359_E361K]	inactive: 0.731
LQKNIYSEELR [LMNA_Y211_F206L]	inactive: 0.965
FQKNSYSEELR [LMNA_Y211_I210S]	inactive: 0.636
VNKIFHPDFIV [LIG3_Y768_Y768H_YF]	inactive: 1.12
MFQVQYNSSVD [LRFN1_Y458_YF]	inactive: 1.16
YDCGMYSHLQG [LGR4_Y848]	inactive: 1.2
PQDVTYAQLHS [LILRB4_Y412]	inactive: 1.51
MEIHAYRKLSE [LMNA_Y376_L380S]	inactive: 0.453
NSNAAYEESHF [LRIF1_Y714_Q716E]	inactive: 0.631
RSSKMYLKTRS [LPL_Y329]	inactive: 0.429
NPPGMYPVTGP [LPP_Y346]	inactive: 0.789
YGCGMYSHLQG [LGR4_Y848_D844G]	inactive: 1.16
RRSKMYLKTRS [LPL_Y329_S325R]	inactive: 0.201
KEIHAYRKLLE [LMNA_Y376_M371K]	inactive: 0.573
PGIRMYRVQYN [LRFN1_Y454_Q455R]	inactive: 0.693

biological target: SHP2 N-SH2 domain T42A; experiment: as above; conditions: peptide library: pTyr-Var

Binder	enrichment score
DQVEQCKKELE [LMNA_Y259_Y259C]	inactive: 0.587
FQKNIYSEEPR [LMNA_Y211_L215P]	inactive: 0.67
QQLDKYQELLD [LMNA_Y359_E358K]	inactive: 0.745
QQLDEYQKLLD [LMNA_Y359_E361K]	inactive: 0.804
LQKNIYSEELR [LMNA_Y211_F206L]	inactive: 0.656
FQKNSYSEELR [LMNA_Y211_I210S]	inactive: 0.622
VNKIFHPDFIV [LIG3_Y768_Y768H_YF]	inactive: 1.01
MFQVQYNSSVD [LRFN1_Y458_YF]	inactive: 1.36
YDCGMYSHLQG [LGR4_Y848]	inactive: 1.23
PQDVTYAQLHS [LILRB4_Y412]	active: 3.82
MEIHAYRKLSE [LMNA_Y376_L380S]	inactive: 0.414
NSNAAYEESHF [LRIF1_Y714_Q716E]	inactive: 0.464
RSSKMYLKTRS [LPL_Y329]	inactive: 0.366
NPPGMYPVTGP [LPP_Y346]	inactive: 0.722
YGCGMYSHLQG [LGR4_Y848_D844G]	inactive: 0.904
RRSKMYLKTRS [LPL_Y329_S325R]	inactive: 0.409
KEIHAYRKLLE [LMNA_Y376_M371K]	inactive: 0.513
PGIRMYRVQYN [LRFN1_Y454_Q455R]	inactive: 0.578

biological target: SHP2 N-SH2 domain T52S; experiment: as above; conditions: peptide library: pTyr-Var

Binder	enrichment score
DQVEQCKKELE [LMNA_Y259_Y259C]	inactive: 0.707
FQKNIYSEEPR [LMNA_Y211_L215P]	inactive: 0.728
QQLDKYQELLD [LMNA_Y359_E358K]	inactive: 0.911
QQLDEYQKLLD [LMNA_Y359_E361K]	inactive: 0.858
LQKNIYSEELR [LMNA_Y211_F206L]	inactive: 0.727
FQKNSYSEELR [LMNA_Y211_I210S]	inactive: 0.639
VNKIFHPDFIV [LIG3_Y768_Y768H_YF]	inactive: 0.887
MFQVQYNSSVD [LRFN1_Y458_YF]	inactive: 1.15
YDCGMYSHLQG [LGR4_Y848]	inactive: 1.24
PQDVTYAQLHS [LILRB4_Y412]	inactive: 1.25
MEIHAYRKLSE [LMNA_Y376_L380S]	inactive: 0.421
NSNAAYEESHF [LRIF1_Y714_Q716E]	inactive: 0.62
RSSKMYLKTRS [LPL_Y329]	inactive: 0.566
NPPGMYPVTGP [LPP_Y346]	inactive: 0.905
YGCGMYSHLQG [LGR4_Y848_D844G]	inactive: 0.835
RRSKMYLKTRS [LPL_Y329_S325R]	inactive: 0.182
KEIHAYRKLLE [LMNA_Y376_M371K]	inactive: 0.654
PGIRMYRVQYN [LRFN1_Y454_Q455R]	inactive: 0.538

biological target: SHP2 N-SH2 domain wild-type; experiment: as above; conditions: peptide library: pTyr-Var

Binder	enrichment score
DQVEQCKKELE [LMNA_Y259_Y259C]	inactive: 0.558
FQKNIYSEEPR [LMNA_Y211_L215P]	inactive: 0.536
QQLDKYQELLD [LMNA_Y359_E358K]	inactive: 0.884
QQLDEYQKLLD [LMNA_Y359_E361K]	inactive: 1.06
LQKNIYSEELR [LMNA_Y211_F206L]	inactive: 0.884
FQKNSYSEELR [LMNA_Y211_I210S]	inactive: 0.843
VNKIFHPDFIV [LIG3_Y768_Y768H_YF]	inactive: 0.98
MFQVQYNSSVD [LRFN1_Y458_YF]	inactive: 0.984
YDCGMYSHLQG [LGR4_Y848]	inactive: 1.2
PQDVTYAQLHS [LILRB4_Y412]	inactive: 0.814
MEIHAYRKLSE [LMNA_Y376_L380S]	inactive: 0.509
NSNAAYEESHF [LRIF1_Y714_Q716E]	inactive: 0.672
RSSKMYLKTRS [LPL_Y329]	inactive: 0.543
NPPGMYPVTGP [LPP_Y346]	inactive: 0.638
YGCGMYSHLQG [LGR4_Y848_D844G]	inactive: 1.39
RRSKMYLKTRS [LPL_Y329_S325R]	inactive: 0.233
KEIHAYRKLLE [LMNA_Y376_M371K]	inactive: 0.368
PGIRMYRVQYN [LRFN1_Y454_Q455R]	inactive: 0.522
